The source gives no read counts; variants with many changes may rest on few reads.

To fix the notation:
B1: CPEB3 Ribozyme (parent)
chain: UAACAGGGGGCCACAGCAGAAGCGUUCACGUCGCAGCCCCUGUCAGAUUCUGGUGAAUCUGCGAAUUCUGCUGUAUAUCUC

Variants of B1 are the subject of this data set. Description: self-cleavage, relative activity (ratio to wild type); higher = more cleavage; in vitro, sequencing. The gist of the method:
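After error-prone PCR and barcoding, CPEB3 ribozyme mutant libraries were transcribed with T7 RNA polymerase at 37°C for 5 hours, then given 15 min with DNase I before an EDTA stop, and they cleaved during both steps. Reverse transcription with template switching preceded Illumina sequencing. Relative activity divides a variant's cleaved/total read fraction by the unmutated ribozyme's. At least 5 reads were required per variant, and three batches were averaged.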
For A20G U49A G55A U67C U72G A77U, the self-cleavage is 0.42.

Turning to A20G U41C U60G U74C U78C, the self-cleavage was 0.43.

For the variant A20G U43A G63A A64G C81A, the self-cleavage came out at 0.76.

For A20U U25C A45G, the self-cleavage is 0.29.

Take A20G U54C A64G C71A: the self-cleavage was 0.37.

Turning to A20U A28U A35G, the self-cleavage was 0.45.

Turning to A20G U58C U80C, the self-cleavage worked out at 0.43.

Turning to A20U A45G U67C U72C A77G, the self-cleavage was found to be 0.04.

As to A20G U48C U54A U66C U74C U78C, the self-cleavage worked out at 0.15.

With A20U A35U A45G, the self-cleavage turned out to be 0.14.

As to A20U A47G U76C, the self-cleavage is 0.26.

Turning to A20G U48C U54C, the self-cleavage came to 0.25.

In the case of A20U A64U U66C U72C, the self-cleavage worked out at 0.11.

As to A20U C40G U66C U69C, the self-cleavage was found to be 0.19.

Turning to A20U G36C A45C G52U U80A, the self-cleavage is 0.04.

A20G U43C U58C: the self-cleavage was found to be 0.12.

Consider A20U A28G U54C U72C, for which the self-cleavage stood at 0.4.

With A20U C27G A47U, the self-cleavage turned out to be 0.17.

Consider A20G U43A G63U, for which the self-cleavage amounted to 1.13.

On to A20G U48C U49A U60C, for which the self-cleavage worked out at 0.06.

As to A20U G33A A35C A64U, the self-cleavage is 0.15.

Take A20U U25A U54A: the self-cleavage is 0.05.

For the variant A20U G33U U67C U72A, the self-cleavage was found to be 0.09.

As for A20U A35G A45G C62U, the self-cleavage was 0.27.

As for A20U A35G A45G C62A, the self-cleavage amounted to 0.13.

Take A20U G24A U54C A65G: the self-cleavage is 0.12.

On to A20U A21G U67C, for which the self-cleavage was found to be 0.19.

With A20U C34U C44U U54G A64U A65G, the self-cleavage was determined as 0.27.

As to A20U U25C U49A G61A A65G, the self-cleavage is 0.1.

On to A20U U25C U76C, for which the self-cleavage was 0.28.

On to A20U C32U U43A, for which the self-cleavage is 0.15.

For A20U A28G A45U U48C G63U, the self-cleavage was determined as 0.24.

On to A20U C32U C40A U48C G73A, for which the self-cleavage turned out to be 0.1.

As for A20U A35U G52C A77G, the self-cleavage turned out to be 0.1.

As to A20U C32A A45G A56G A57G, the self-cleavage amounted to 0.16.

With A20G U54A U60A G63A U66C, the self-cleavage was found to be 0.31.

In the case of A20G U48C G55U U60A, the self-cleavage was found to be 0.21.

Regarding A20U A28G U74C U76C, the self-cleavage turned out to be 0.

On to A20G U69C U72C U78C, for which the self-cleavage is 0.24.

Take A20G U51A A64U U78A: the self-cleavage turned out to be 0.23.

Turning to A20U G33A A35C, the self-cleavage came to 0.14.

In the case of A20G U58C G63A, the self-cleavage turned out to be 0.31.

As for A20U A56G U66C U76C U80A, the self-cleavage was determined as 0.19.

For A20U G42A C59G A77G, the self-cleavage was 0.13.

With A20U A35G U51A U69A U72C, the self-cleavage came out at 0.3.

For the variant A20U A35G U78A, the self-cleavage was 1.05.

With A20G U48C U49A, the self-cleavage worked out at 0.37.

Consider A20G U48C U49C, for which the self-cleavage came to 0.26.

Regarding A20U G46U U48A A56G U67C U69G, the self-cleavage stood at 0.19.

Turning to A20G U54C C81A, the self-cleavage worked out at 1.2.

Take A20U G33A U41A: the self-cleavage was determined as 0.11.

With A20U C23U U31C, the self-cleavage amounted to 0.16.

On to A20G U41C U51C U80C, for which the self-cleavage is 0.85.

As for A20U U26A A35C U41A A64U, the self-cleavage amounted to 0.14.

On to A20U G22U U26A U80C, for which the self-cleavage came out at 0.21.

As for A20U G24A C29U G42A, the self-cleavage came to 0.13.

On to A20G U49C U80A, for which the self-cleavage turned out to be 0.07.

As to A20G U41C U43A A45U U80C, the self-cleavage amounted to 0.32.

As to A20U U25C A35U U49A U67C, the self-cleavage amounted to 0.1.

A20U G30A A45G U66C A75G: the self-cleavage worked out at 0.06.

Regarding A20G U41C U74A, the self-cleavage came out at 0.91.

As to A20G U41C G42C A56U C62U A77U, the self-cleavage turned out to be 0.05.

In the case of A20U G22A A35U, the self-cleavage was 0.11.

A20U G24A U31C A64C: the self-cleavage came out at 0.08.

For the variant A20U A35G A45G U51C A65G U78C, the self-cleavage worked out at 0.16.

A20G U54C U58A: the self-cleavage turned out to be 0.3.

As to A20G U54C U58C, the self-cleavage turned out to be 0.5.

On to A20U C27U U60A U67C U74C, for which the self-cleavage is 0.35.

In the case of A20G U69A U74A, the self-cleavage was 0.33.

On to A20U C50U A64G, for which the self-cleavage was 0.13.

On to A20G U43C U67C, for which the self-cleavage is 0.72.

Turning to A20G U41C U43G U80C, the self-cleavage worked out at 0.36.

Consider A20U C29U U72C U80C, for which the self-cleavage is 0.06.

For A20U G22C U25C U48C A64U U78C, the self-cleavage was 0.04.

Consider A20G U41C U51A U58A U67A, for which the self-cleavage was 0.32.

In the case of A20U A28G U41A A45G U69A, the self-cleavage came to 0.05.

Turning to A20G U41C U43G A47U, the self-cleavage was determined as 0.19.

For the variant A20G U43A A64G, the self-cleavage was found to be 0.34.

With A20G U60A U69A, the self-cleavage turned out to be 0.34.

For the variant A20G U51A U67G U80A, the self-cleavage was determined as 0.2.

For the variant A20U A35G G36A C38U U74C U78G, the self-cleavage was 0.09.

Turning to A20U G30A U31A U74A, the self-cleavage was 0.16.

With A20U C23U U25A U26G U43C A64G, the self-cleavage was 0.17.

A20U A47U U51A U60A A64G U80A: the self-cleavage came to 0.07.

Source of the values: the RNAGym collection of RNA variant scans (doi:10.1093/nar/gkz1192).
